Assay results from PMC4336329 (PLoS ONE, 2015).
About 14,000 (4.5%) of roughly 310,000 compounds showed an effect of 50% or more. The effect is printed as a negative number. The list shows a part of the results.

Target: human ether-à-go-go-related gene (hERG) potassium channel (human, UniProt Q12809)
Test: primary screen, population patch clamp on CHO cells stably expressing hERG
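Also: peak tail current of the secondary pulse compared with the same well before compound.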

Chain of human ether-à-go-go-related gene (hERG) potassium channel (Q12809 whole entry, looked up): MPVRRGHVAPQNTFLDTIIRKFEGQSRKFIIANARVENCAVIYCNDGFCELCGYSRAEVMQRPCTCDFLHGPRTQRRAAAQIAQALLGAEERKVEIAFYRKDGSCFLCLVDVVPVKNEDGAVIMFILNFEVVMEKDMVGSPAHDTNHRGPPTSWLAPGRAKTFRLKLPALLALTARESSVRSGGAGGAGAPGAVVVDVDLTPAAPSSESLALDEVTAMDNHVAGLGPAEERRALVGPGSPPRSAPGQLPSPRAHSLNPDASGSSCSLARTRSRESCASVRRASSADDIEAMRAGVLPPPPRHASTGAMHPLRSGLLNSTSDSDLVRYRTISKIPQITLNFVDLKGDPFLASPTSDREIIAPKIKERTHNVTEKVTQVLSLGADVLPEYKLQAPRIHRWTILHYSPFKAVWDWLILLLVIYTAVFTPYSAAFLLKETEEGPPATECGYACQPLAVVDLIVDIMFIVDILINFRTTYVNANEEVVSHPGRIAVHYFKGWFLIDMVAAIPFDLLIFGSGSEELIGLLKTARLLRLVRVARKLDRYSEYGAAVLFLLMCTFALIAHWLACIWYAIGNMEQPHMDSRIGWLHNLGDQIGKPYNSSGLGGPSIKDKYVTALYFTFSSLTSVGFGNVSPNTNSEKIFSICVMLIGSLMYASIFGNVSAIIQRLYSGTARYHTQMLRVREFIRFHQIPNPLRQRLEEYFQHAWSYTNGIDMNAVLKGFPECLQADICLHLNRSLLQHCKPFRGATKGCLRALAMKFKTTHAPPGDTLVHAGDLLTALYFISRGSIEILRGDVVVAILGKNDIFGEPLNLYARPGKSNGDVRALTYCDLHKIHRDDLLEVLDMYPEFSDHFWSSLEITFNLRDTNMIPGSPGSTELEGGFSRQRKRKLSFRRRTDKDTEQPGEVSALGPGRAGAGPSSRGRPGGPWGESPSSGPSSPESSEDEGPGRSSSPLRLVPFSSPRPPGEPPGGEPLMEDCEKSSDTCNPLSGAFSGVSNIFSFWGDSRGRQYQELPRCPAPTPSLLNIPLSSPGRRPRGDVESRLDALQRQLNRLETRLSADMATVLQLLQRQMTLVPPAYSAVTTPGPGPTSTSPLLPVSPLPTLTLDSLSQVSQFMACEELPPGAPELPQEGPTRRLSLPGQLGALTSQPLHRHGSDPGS

Structure (SMILES) | hERG current change (%, negative = inhibition) at 10uM [%]
CCOc1ccc(Cl)cc1CNc1nnnn1C | 21.7
CCC(C)N1CC(O)=C(c2nc3ccccc3[nH]2)C1=N (stereo not shown) | -6.65
CCOC(=O)C1CCN(C(=O)c2ccc(Oc3cc(Cl)cc(Cl)c3)o2)CC1 | -13
CC(OCC(O)CNCC1COc2ccccc2O1)c1ccc(Cl)cc1 (stereo not shown) | -22.7
O=S(=O)(NCC(c1ccco1)N1CCOCC1)c1ccc(Cl)cc1 (stereo not shown) | -10.6
CCOc1cc(C(=O)Nc2ccccc2N2CCOCC2)ccc1OCC(=O)N1CCOCC1 | 1.5
Cc1nn(C)c(C)c1CN(C)C(=O)CCCC(=O)O | -4.62
CN(C(=O)COC(=O)c1cc(S(=O)(=O)N2CCOCC2)c(Cl)cc1Cl)C1CCS(=O)(=O)C1 (stereo not shown) | 2.52
CS(=O)(=O)c1ccccc1-c1nnc(NC(=O)Cc2ccccc2)o1 | 14.3
O=C(O)C12CC3CC(C1)CC(n1cnc(Cl)n1)(C3)C2 | 7.4
COc1ccc(CN2C(=O)C(C)=C(C)C2OC)cc1 (stereo not shown) | 15
COc1ccc(C(=O)CSc2nnc(CN3CCCCC3)n2-c2ccc(Cl)cc2)cc1OC | -17.1
Cc1ccc2nc(-c3ccc(N4C(=O)CC(N5CCC(C(N)=O)CC5)C4=O)cc3)sc2c1 (stereo not shown) | 7.3
COc1cc(/C=N\NC(=O)c2ccc(Cl)cc2)ccc1Oc1ccc([N+](=O)[O-])cn1 | -32.7
CCCCNC(=O)COC(=O)c1cc(Br)ccc1Cl | 3.22
Cc1ccc(S(=O)(=O)NCCN=C(CN2CCCC2)NS(=O)(=O)c2ccc(C)cc2)cc1 | -30.8
O=C(CSc1nnnn1Cc1ccccc1)c1ccc(F)cc1 | -25.8
Cc1cccc(NC(=O)[C@H](C)NC(=O)[C@@H]2Cc3ccccc3CN2C(=O)OC(C)(C)C)c1 | -5.71
COc1ccc(CCN(C)C(=O)c2cc(S(=O)(=O)N3CCCCC3)ccc2Cl)cc1OC | 0.297
CC(C)NC(=O)c1ccccc1NC(=O)Cc1ccc(Br)cc1 | 8.93
COc1ccc(S(=O)(=O)N(C)CC(=O)NCc2cccnc2)cc1C | 1.21
CCn1c(SCC(=O)N2CCCc3ccccc32)nc2c(c1=O)SC(C)C2 (stereo not shown) | -24.7

Structure (SMILES) | hERG current change (%, negative = inhibition) at 10uM [%]
CC1C(=O)N2CCCc3cc(NC(=O)C(=O)NCc4cccnc4)cc1c32 (stereo not shown) | 9.89
COc1c(O)cnn(-c2ccccc2)c1=O | 16.4
O=C(CSc1nn(-c2ccc(Cl)cc2)c(=S)s1)NCC1CCCO1 (stereo not shown) | -0.435
O=C(CN1C(=O)NC2(CCc3ccccc32)C1=O)c1ccccc1 (stereo not shown) | 15.1
Cl.c1ccc2c(c1)NCCS2 | 8.05
CCC(C)(C)n1nnnc1C(c1ccc2ncccc2c1)N1CCN(c2nc3ccccc3s2)CC1 (stereo not shown) | 2.06
COc1ccc(/C=N/n2c(=S)n(C)c3ccccc32)cc1OC | -15.7
CC(C)c1nnc(NC(=O)c2cc3ccccc3o2)s1 | 11.1
COc1cc(CSc2ncn[nH]2)c(OC)cc1CSc1ncn[nH]1 | 2.02
Cc1cc(Cl)ccc1NC(=O)CSc1nnc(-c2ccncc2)n1Cc1ccco1 | -52.8
O=C(CS(=O)c1cccc(C(F)(F)F)c1)Nc1ccccc1Cl (stereo not shown) | -7.02
CCOc1ccc2nc(SCC(=O)Nc3cc(C)on3)c(C)cc2c1 | 11.9
O=C(N/N=C/c1c[nH]c2ccccc12)c1ccn[nH]1 | 18.9
Cc1nnc(Sc2c(N)n(C)c(=O)n(C)c2=O)s1 | -7.72
O=C(Nc1cc(-c2nc3ncccc3o2)ccc1Cl)c1ccco1 | -22.2
CC(C)=CCN1CCN(Cc2cc(C(C)C)n[nH]2)CC1CCO (stereo not shown) | 11.3
CC(C)CCCN1CCN=C1Nc1ccccc1 | -3.11
O=C(OCn1nnc2ccccc2c1=O)c1cc(-c2ccccc2Cl)nc2ccccc12 | 12.8
Cc1cc(C(=O)Nc2cccc(/C=C/C(=O)O)c2)c(C)o1 | -4.62
Cn1c(SCC(=O)c2ccc3c(c2)Cc2ccccc2-3)nnc1-c1ccccc1 | 7.89
CC(=O)N1Cc2ccccc2CC1C(=O)O (stereo not shown) | -7.43
COc1ccc(Br)cc1S(=O)(=O)N1CCN=C1C | -0.252

Structure (SMILES) | hERG current change (%, negative = inhibition) at 10uM [%]
COc1cc(C(=O)NCc2nnc(SCC(=O)NC3CCCC3)o2)cc(OC)c1OC | 9.56
CC(C)(C)OC(=O)N1CCC(NC(=O)c2nc[nH]c2C(=O)N2CCN(C(=O)OC(C)(C)C)CC2)CC1 | 9.85
COc1ccc(-c2ccc3oc(-c4ccc(OC)cc4)c(-c4cc(OC)c(OC)c(OC)c4)c3c2)cc1 | 0.835
Cl.NCC(O)c1cc(O)c(O)cc1F (stereo not shown) | 1.33
Clc1cccc(Cl)c1CON/C=N/c1ncnc2sccc12 | 0.651
COc1ccc(C(=O)Nc2ccc(C)c(S(=O)(=O)N3CCCCCC3)c2)cc1 | -9.69
Cc1occc1-c1nnc(SCC(=O)Nc2ccccc2)n1C | 9.72
COc1ccc(S(=O)(=O)N2CCCC2)c(Cl)c1Cl | -7.22
CCOC(=O)C/C(C)=N/NC(=O)Nc1ccccc1 | -0.466
COc1ccc(C(=O)NC2(C(F)(F)F)NC(=O)N(CCCc3ccccc3)C2=O)cc1OC (stereo not shown) | -19.9
CSc1nsc(SCC(=O)N2CCCc3ccccc32)n1 | -34.7
COc1ccc(C(=O)Nc2nnc(SCC(=O)NC3CC3)s2)cc1 | 7.39
CCOC(=O)c1cc2c(C)[nH]c(C)c2cc(C(=O)OCC)c1=O | 12.3
O=C(C(c1ccccc1)c1ccccc1)N1CCOCC1 | 0.742
CCOc1ccc(C(=O)NCC(=O)OCC(=O)N2CCC(C)CC2)cc1 | -14.1
COc1ccc(/C(N)=N/OC(=O)c2ccc3c(c2)OCO3)cc1OC | -8.74
CCCN(C(=O)COC(=O)CNC(=O)c1ccc2ccccc2c1)c1c(N)n(Cc2ccccc2)c(=O)[nH]c1=O | 5.31
C/C=C(\C)CN1CCN(c2ccccc2F)CC1 | -7.54
O=[N+]([O-])c1cccc(/C=N/Nc2nccnc2Cl)c1 | -16.5
CN1C(=O)/C(=C/c2ccccc2Cl)Sc2ccc(C(=O)NCc3cccnc3)cc21 | -30.1
CCS(=O)(=O)N1Cc2ccccc2CC1C(=O)OCC(=O)N(C(C)C)C(C)C (stereo not shown) | -1.99
COc1ccccc1NC1=NC(C)(C)N=C(N)N1 | 23.2

Structure (SMILES) | hERG current change (%, negative = inhibition) at 10uM [%]
COC(=O)[C@@]1(Cc2ccc(F)cc2)[C@H]2c3cc(C(=O)N(C)C)n(Cc4ccccc4)c3C[C@H]2CN1C(=O)c1ccccc1 | -13.3
Cc1ccc(OCc2nnc(SCC(N)=O)n2N)cc1 | 3.47
COc1ccccc1CNc1ncnc2sccc12 | 19.9
CN(C)S(=O)(=O)c1ccc(NC(=O)c2cc3ccccc3o2)cc1 | -3.15
C[C@H](N)C(=O)OCc1ccc([N+](=O)[O-])cc1.O=S(=O)(O)c1ccccc1 | 7.4
CCOC(=O)c1nc(C)n(-c2cc(OC)c(Cl)cc2Cl)n1 | 5.95
O=C(O)CC(NS(=O)(=O)c1c(F)cc(F)cc1Br)c1ccccc1Cl (stereo not shown) | 0.167
CCOC(=O)/C(C#N)=C/Nc1cc(C(C)(C)C)sc1C(C)=O | 23.4
COC(=O)C1=C(N)Oc2cc(C)n(CCN3CCOCC3)c(=O)c2C1c1cccnc1 (stereo not shown) | 14.9
Cc1c(CN2CCCC(CO)(Cc3cccc(Cl)c3)C2)cnn1C (stereo not shown) | -11.2
CCOC(=O)CSc1nnc(CSc2nc3ccccc3s2)n1C | 0.37
C=CCN(C(=O)c1csnn1)C(C(=O)NC1CCCCC1)c1ccc(F)cc1 (stereo not shown) | -5.43
COc1ccc(S(=O)(=O)N2CCOCC2)cc1NC(=O)CCNC(=O)c1ccc([N+](=O)[O-])cc1 | -26
CC(C)C(NC(=O)c1ccc(S(=O)(=O)N2CCOCC2)cc1)c1nc2ccccc2[nH]1 (stereo not shown) | -14.6
CC(=O)N1CCOc2ccc(S(=O)(=O)N3CCC(C(=O)NCc4ccc(C)cc4)CC3)cc21 | -12.7
CN1C(=O)C2(OCC(C)([N+](=O)[O-])CO2)c2ccccc21 (stereo not shown) | 16.9
C#CCNC(=O)C1=C[C@H](C2CCCCC2)[C@@H](CCCO)[C@H](OCC)O1 | 6.17
Clc1ccc(Cc2nc(-c3cccnc3)no2)cc1 | -16.1
COc1ccsc1C(=O)NCCN1CCOCC1 | 5.39
Cc1cccc(OCC(=O)Nc2ccc3c(c2)nc(CN2CCCCC2)n3C)c1.Cl | -25.3
CC(=O)c1ccc(NC(=O)C2CC(c3ccc(F)cc3)=NO2)cc1 (stereo not shown) | -6.78
CC(C)(C)OC(=O)N1CCC(c2c(C(=O)O)cnn2-c2ccccc2)CC1 | 11
